Data on 120 sequences can be found in the supplement of paper PMC10126150.

In the series the test system is ATP. The series is described as follows: switch fluorescence ratio, 500 uM ATP over buffer (Cy3 cluster intensity, sum of 5 cycles each) (fold (ratio)); higher = stronger signal-on switching upon ATP binding; sequences stand for … in TCGTCGGCAGCGTCAGATGTGTATAAGAGACAGTTTTTTTTTTTTTTTTTTTTTTTTT…TC. Particulars: aptamer strand: ATP DNA aptamer (quencher-CACCTGGGGGAGTATTGCGGAGGAAGG + anchor), 100 nM annealed; ATP concentration: 500 uM; one replicate. In outline:
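Between each of five buffer/ATP cycles, the flow-cell was stripped with NaOH and re-annealed. Each cycle imaged Cy3-labelled switching-strand clusters, annealed to 100 nM quencher-labelled ATP aptamer on a modified Illumina MiSeq flow-cell, first in selection buffer and then after 15 min with 500 uM ATP at 22 °C. The fluorescence ratio is summed target-cycle over summed buffer-cycle Cy3 intensity per cluster, averaged per switch-domain sequence, with clusters outside 100-1000 RFU excluded.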

Sequences with one replicate were seen in a single cluster, so their values are uncertain.
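Also: ATP exposure 15 min at 22 °C before imaging.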

For GTCTATTCAG, the switch fluorescence ratio came to 0.999.

Take CATACTCGTA: the switch fluorescence ratio came out at 0.983.

As to AAAGACGGTC, the switch fluorescence ratio worked out at 1.01.

Take ACCCACTAAT: the switch fluorescence ratio is 1.27.

Consider CGTTGGGCGC, for which the switch fluorescence ratio amounted to 0.991.

Consider GGTAGAAAAG, for which the switch fluorescence ratio came to 0.965.

As to AGACGTAAAC, the switch fluorescence ratio came to 1.58.

As to AAAACATCAG, the switch fluorescence ratio came to 1.03.

For TAGCTGAGCA, the switch fluorescence ratio is 0.994.

Regarding CAACTAGTTG, the switch fluorescence ratio worked out at 1.01.

With GTGTTTCAGA, the switch fluorescence ratio stood at 0.997.

For the sequence CCTGTTATCA, the switch fluorescence ratio was determined as 0.968.

In the case of CAGGGGGAGC, the switch fluorescence ratio was found to be 1.12.

As to GTCGGTGCTG, the switch fluorescence ratio was found to be 0.987.

For CCACCAACTG, the switch fluorescence ratio worked out at 1.11.

In the case of CGTGGATTCA, the switch fluorescence ratio turned out to be 1.02.

Take CAATCTTTCT: the switch fluorescence ratio amounted to 1.05.

On to ATCTACTCCG, for which the switch fluorescence ratio is 1.39.

For the sequence ATTTGTATAC, the switch fluorescence ratio worked out at 1.01.

As to CTCGACAGAG, the switch fluorescence ratio was found to be 0.964.

For CGCTGCAGAT, the switch fluorescence ratio stood at 1.43.

AGGTGATGTA: the switch fluorescence ratio is 0.989.

Take TTTTAAGATC: the switch fluorescence ratio turned out to be 0.968.

Consider TGGAGTAATC, for which the switch fluorescence ratio was 2.09.

For the sequence GGGTTACTTC, the switch fluorescence ratio came to 1.03.

Turning to CGCGGTTATG, the switch fluorescence ratio came to 1.03.

Regarding AACTACATTG, the switch fluorescence ratio worked out at 1.03.

TCACACACGC: the switch fluorescence ratio is 1.45.

For GACATTGAAG, the switch fluorescence ratio was 0.956.

Turning to TAGATTTGCC, the switch fluorescence ratio is 1.

With TGTTCAAGGG, the switch fluorescence ratio turned out to be 0.993.

Regarding ATCGTCGCGA, the switch fluorescence ratio came to 0.995.

On to CGGCTTGGTA, for which the switch fluorescence ratio was 0.958.

ACCTTCAAAC: the switch fluorescence ratio was 1.44.

As to GGTCCGGG, the switch fluorescence ratio came out at 1.01.

As for CGATTGATTT, the switch fluorescence ratio was determined as 0.998.

Take TATTCTTTGC: the switch fluorescence ratio came out at 1.01.

Regarding AGATGGCCAT, the switch fluorescence ratio is 0.998.

On to TGGATACCGT, for which the switch fluorescence ratio came out at 0.997.

For the sequence TATCCATTCC, the switch fluorescence ratio was found to be 1.39.

Turning to GGGTTCGGCG, the switch fluorescence ratio amounted to 1.02.

With TAATCTTTCA, the switch fluorescence ratio came to 1.03.

As for GTCTTAATTG, the switch fluorescence ratio was determined as 1.04.

As for TCGTCTTTAC, the switch fluorescence ratio is 1.68.

As for AAGTTACTAT, the switch fluorescence ratio was found to be 1.04.

Regarding TACCGCGTTG, the switch fluorescence ratio amounted to 1.04.

In the case of GGGAAACAGG, the switch fluorescence ratio was determined as 1.05.

As to TGTTTGTCAG, the switch fluorescence ratio is 1.07.

Regarding CATGATGACT, the switch fluorescence ratio is 1.03.

For the sequence GTATCTAGTG, the switch fluorescence ratio is 0.945.

As to TAGCGTGAGA, the switch fluorescence ratio worked out at 1.04.

Consider GAGAAGGAGA, for which the switch fluorescence ratio is 1.06.

For the sequence CGAGCGGATC, the switch fluorescence ratio was found to be 1.15.

Turning to CATAAAATGT, the switch fluorescence ratio was 0.982.

On to AAATGTAGGT, for which the switch fluorescence ratio amounted to 0.963.

As to CCTGAAGGCG, the switch fluorescence ratio was found to be 0.987.

As for CCTACATCAG, the switch fluorescence ratio is 1.05.

Take GGTATCGCTA: the switch fluorescence ratio worked out at 1.02.

Turning to TTATTCACCG, the switch fluorescence ratio came to 1.07.

As for AGAGGCAGGT, the switch fluorescence ratio stood at 1.02.

With TCTAGGGATT, the switch fluorescence ratio turned out to be 1.01.

As for GCCACAAAAG, the switch fluorescence ratio worked out at 0.965.

TAGGTCCTTA: the switch fluorescence ratio was determined as 1.01.

As to TATCAAAATG, the switch fluorescence ratio is 1.01.

On to AAACAGGTTA, for which the switch fluorescence ratio worked out at 1.01.

On to GGGCTTCCCA, for which the switch fluorescence ratio worked out at 1.02.

Take GTCGCTCTGT: the switch fluorescence ratio came to 0.998.

In the case of ATGTTATTAC, the switch fluorescence ratio was 1.03.

In the case of TACTTTATTG, the switch fluorescence ratio is 1.46.

With ATCATGGGAG, the switch fluorescence ratio is 1.

For the sequence TTAAAAACTA, the switch fluorescence ratio was determined as 1.04.

On to ACAGCTCCGG, for which the switch fluorescence ratio amounted to 1.01.

AATGAAGACC: the switch fluorescence ratio was 1.01.

In the case of GCGTTCCCTT, the switch fluorescence ratio turned out to be 1.01.

Take GAGCGAGGCA: the switch fluorescence ratio is 0.994.

Take GAGGTCTTAA: the switch fluorescence ratio turned out to be 1.01.

Take CTGTCGAGT: the switch fluorescence ratio was 0.992.

Consider GAATACATCG, for which the switch fluorescence ratio turned out to be 1.01.

Take AGGGATCGGC: the switch fluorescence ratio was 0.935.

In the case of CTGGACAACA, the switch fluorescence ratio came out at 1.06.

Turning to TTCTCAATGA, the switch fluorescence ratio was determined as 1.03.

Regarding TGCTAGTGCT, the switch fluorescence ratio was 0.94.

On to GCGCGCATTA, for which the switch fluorescence ratio stood at 0.996.

As to CATGGCCCCG, the switch fluorescence ratio is 1.01.

As to CGTATTCTAA, the switch fluorescence ratio stood at 1.01.

Turning to TTAACGTCAA, the switch fluorescence ratio was found to be 1.24.

For TCGGGTATCC, the switch fluorescence ratio amounted to 1.09.

Consider ATAGTGAGTG, for which the switch fluorescence ratio is 0.97.

GAGGACGCTA: the switch fluorescence ratio was 2.48.

On to AGTTTGTAAG, for which the switch fluorescence ratio came out at 1.01.

For AATTTCTGTT, the switch fluorescence ratio is 1.02.

Turning to CTAGACGTTG, the switch fluorescence ratio was 1.01.

Turning to ACCTAATGCG, the switch fluorescence ratio was 1.06.

Consider AGTTGCGCCG, for which the switch fluorescence ratio is 0.984.

On to TAATCTGGGG, for which the switch fluorescence ratio was determined as 0.981.

On to TAGTACGTGT, for which the switch fluorescence ratio was determined as 1.03.

On to GGCGTCCCCT, for which the switch fluorescence ratio stood at 1.05.

TTTCATGGGC: the switch fluorescence ratio was 0.936.

As to GACCTCCTAC, the switch fluorescence ratio was determined as 2.15.

TTGCATAGTC: the switch fluorescence ratio was 1.01.

Turning to TTTCATGCTC, the switch fluorescence ratio was 1.

Take GAGTAGAGAG: the switch fluorescence ratio stood at 1.06.

Regarding CAACTTGGAA, the switch fluorescence ratio was 1.01.

As for ACCGATTGTC, the switch fluorescence ratio was determined as 1.02.

For CGGTTCTCTT, the switch fluorescence ratio amounted to 1.

In the case of GGCAAAAAGG, the switch fluorescence ratio was 0.98.

TGCTCGCTCA: the switch fluorescence ratio was found to be 1.01.

With CTCAAACCGA, the switch fluorescence ratio was 1.26.

Consider TAGTCTAGC, for which the switch fluorescence ratio came to 1.03.

GGTTCGAGTC: the switch fluorescence ratio was found to be 1.05.

For TAGCTATCGA, the switch fluorescence ratio came out at 1.01.

Regarding TAAGAGTTTG, the switch fluorescence ratio turned out to be 0.98.

With TTTTTCGGA, the switch fluorescence ratio was 1.01.

For the sequence TATCCGTATT, the switch fluorescence ratio was 1.08.

As to TTAAGAAATG, the switch fluorescence ratio amounted to 1.36.

In the case of GGGAAGGACG, the switch fluorescence ratio is 1.02.

As to TGGTACGTTT, the switch fluorescence ratio came to 0.962.

Turning to CAAAGATTGA, the switch fluorescence ratio stood at 1.

As to CCTGTGTACT, the switch fluorescence ratio was found to be 1.14.

For CAAATGCATT, the switch fluorescence ratio stood at 1.01.
